By IC50 is meant the dose at which the fit gives 50% viability; where the fit passes the top or lowest dose, that dose stands as a limit. The AUC spans the tested range (256-fold, ending at the top dose) of the same fit: 1 means no effect, lower means more sensitive. A top dose marked as inferred was derived from the fitted curves, not read from the paper. Where an entry number is given, a second screen of the drug exists; the two often differ.

Compound in the first experiment: NC(=O)[C@@H](CCC(F)(F)F)N(Cc1ccc(-c2ncon2)cc1F)S(=O)(=O)c1ccc(Cl)cc1 [BMS-708163]
The experiment is described as follows: Viability of human cancer cell lines after 72 h of drug (GDSC screen). The following applies: screen: GDSC drug entry 205; top dose inferred. How it is done:
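Human cancer cell lines in 384-well plates, medium with 10% serum, drug for 72 h over a 256-fold dose range (nine 2-fold or five 4-fold steps up to the top dose). Adherent lines were fixed and stained with the nucleic acid dye Syto60, suspension lines read with resazurin; signal relative to control wells, capped at 0 and 100%. One two-parameter sigmoid per drug and line, fitted in a mixed model over all curves with the slope shared within a line.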
A word on the IC50: it is the point on the concentration scale where inhibition reaches its midpoint. In the case of “EKVX (lung adenocarcinoma, adherent, top dose 2.56 µM)”, the AUC is 0.97 and the IC50 was more than 2.56 µM.
For “EM-2 (chronic myeloid leukaemia, suspension, top dose 10.24 µM)” the same measures were 0.982 and more than 10.2 µM.
For “EMC-BAC-1 (lung adenocarcinoma, adherent, top dose 10.24 µM)” the same measures were 0.972 and more than 10.2 µM.
As to “EMC-BAC-2 (lung adenocarcinoma, adherent, top dose 10.24 µM)”, the AUC amounted to 0.982 and the IC50 was more than 10.2 µM.
For “EN (endometrium, adherent, top dose 10.24 µM)” the same measures were 0.983 and more than 10.2 µM.
For “EPLC-272H (lung squamous cell carcinoma, adherent, top dose 10.24 µM)” the same measures were 0.976 and more than 10.2 µM.
For “ES1 (Ewing sarcoma, adherent, top dose 10.24 µM)” the same measures were 0.985 and more than 10.2 µM.
As for “ES3 (Ewing sarcoma, adherent, top dose 10.24 µM)”, the AUC worked out at 0.981 and the half-maximal inhibitory concentration (IC50) is more than 10.2 µM.
Regarding “ES4 (Ewing sarcoma, adherent, top dose 10.24 µM)”, the AUC worked out at 0.932 and the IC50 is more than 10.2 µM.
As for “ES5 (Ewing sarcoma, adherent, top dose 10.24 µM)”, the AUC was determined as 0.982 and the 50% inhibitory concentration (IC50) is more than 10.2 µM.
For “ES6 (Ewing sarcoma, adherent, top dose 10.24 µM)” the same measures were 0.977 and more than 10.2 µM.
Turning to “ES7 (Ewing sarcoma, adherent, top dose 10.24 µM)”, the AUC turned out to be 0.984 and the IC50 is more than 10.2 µM.
For “ES8 (Ewing sarcoma, adherent, top dose 10.24 µM)” the same measures were 0.936 and more than 10.2 µM.
For “ES-2 (ovary, adherent, top dose 10.24 µM)”, the AUC amounted to 0.991 and the IC50 was more than 10.2 µM.
Take “ESO26 (oesophagus, adherent, top dose 10.24 µM)”: the AUC worked out at 0.987 and the IC50 was more than 10.2 µM.
Consider “ESO51 (oesophagus, semi-adherent, top dose 10.24 µM)”, for which the AUC is 0.979 and the IC50 was more than 10.2 µM.
On to “ESS-1 (endometrium, adherent, top dose 10.24 µM)”, for which the AUC worked out at 0.987 and the concentration for half-maximal inhibition (IC50) was more than 10.2 µM.
For “ETK-1 (biliary tract, adherent, top dose 10.24 µM)” the same measures were 0.983 and more than 10.2 µM.
Turning to “EVSA-T (breast, adherent, top dose 10.24 µM)”, the AUC turned out to be 0.991 and the IC50 is more than 10.2 µM.
On to “EW-1 (Ewing sarcoma, semi-adherent, top dose 10.24 µM)”, for which the AUC was 0.988 and the concentration for half-maximal inhibition (IC50) was more than 10.2 µM.
Take “EW-3 (Ewing sarcoma, adherent, top dose 10.24 µM)”: the AUC stood at 0.953 and the IC50 was more than 10.2 µM.
For the cell line “EW-7 (Ewing sarcoma, semi-adherent, top dose 10.24 µM)”, the AUC was found to be 0.963 and the IC50 was more than 10.2 µM.
In the case of “EW-11 (Ewing sarcoma, adherent, top dose 10.24 µM)”, the AUC was found to be 0.981 and the IC50 was more than 10.2 µM.
On to “EW-13 (Ewing sarcoma, suspension, top dose 10.24 µM)”, for which the AUC was 0.964 and the IC50 is more than 10.2 µM.

The experiment is the same for the next values; noted with them: top dose 5 µM; screen: GDSC drug entry 1072; top dose inferred.
In the case of “EMC-BAC-2 (lung adenocarcinoma, adherent)”, the AUC was found to be 0.981 and the concentration for half-maximal inhibition (IC50) is more than 5 µM.
On to ESO26 (oesophagus, adherent), for which the AUC was found to be 0.976 and the IC50 was more than 5 µM.
For ESO51 (oesophagus, semi-adherent) the same measures were 0.87 and more than 5 µM.

Values taken from the supplement of paper PMC4967469.
